Assay results taken from PubChem BioAssay AID588855 (National Center for Advancing Translational Sciences (NCATS), 2011).
Screen size: about 410,000 compounds; about 5,000 (1.2%) were called active. This list was built around the results that the source calls inconclusive (neither active nor inactive); the mix of calls is not that of the screen. Calls come from the whole dose curve; as a rule, active = well fitted inhibition curve with a large enough effect; inconclusive = small, poorly fitted or top-dose-only effect; inactive = no such curve, though single readings can be large or run the other way. Potencies of inconclusive entries are doubtful fits and often do not repeat.

Test: qHTS for Inhibitors of TGF-b; note: nearly all actives have a fitted effect of over 65% in size
Details: HepG2 CAGA-GFP TGF-b/SMAD3 reporter, GFP fluorescence, 18 h, TGF-beta stimulated, 500 pg/mL final; series mostly up to 46.1 µM; activity, negative = inhibition: at the top concentration
Method in brief: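 TGF-beta reporter screen: HEPG2 CAGA-GFP, 1% FBS, 500 pg/mL TGF-beta final, 18 h; per-cell GFP summed per well; curves fitted and categorized by class.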
% is set by controls: 0 for no effect and ±100 for the full control effect; potency is the fitted concentration of half-maximal effect; tags give direction and shape of the fitted curve.

SMILES	activity, negative = inhibition	Potency
CCOC(=O)C1CCN(C(=O)C(C)Sc2nnc3ccccn23)CC1 (centres undefined)	inactive: -3.95%	
COc1ccc(N2CCc3c(C)nc4c(OC)cccc4c32)cc1		active: 11.2 µM
Cc1cc(-c2ccc3c(c2)COc2c4ccccc4nn2-3)on1	inactive: -0.434%	
Cc1nn(-c2ccccc2)c(Cl)c1CN(C(=O)CCl)c1cccc2ccccc12		inconclusive: 6.31 µM [inhibitor, single point]
CN(C)S(=O)(=O)N1CCN(C(=O)c2cccc(Br)c2)CC1		inconclusive: 2.82 µM [inhibitor, single point]
O=S(=O)(c1ccc(Cl)cc1)c1nnn2c1nc(NC1CCCCC1)c1sccc12	inactive: 43.4%	
COc1ccc(CCNC(=O)CSc2nc3scc(-c4ccccc4)c3c(=O)[nH]2)cc1		active: 12.6 µM
O=S(=O)(c1ccc2nc(Nc3ccccc3)ccc2c1)N1CCCCC1		inconclusive: 35.5 µM [inhibitor, single point]
CN(C)c1ccc(NC(=O)Cn2nnc3sc4c(c3c2=O)CCC(C(C)(C)C)C4)cc1 (centres undefined)	inactive: -4.25%	
O=[N+]([O-])c1ccc(N2CCC(=NOCc3ccc(Cl)cc3)CC2)cc1		inconclusive: 0.112 µM [inhibitor, full curve, poor fit]
COc1ccccc1CNC(=O)[C@H](C)NC(=O)C1CCN(C(=O)[C@H](CCSC)NC(=O)OC(C)(C)C)CC1	inactive: -0.343%	
CC(=O)C[C@H]1c2cc(F)ccc2S(=O)(=O)N1c1ccc(N(C)C)cc1		inactive
Cc1c(C(=O)N2CCN(S(=O)(=O)c3ccc(F)cc3)CC2)oc2ccccc12		inconclusive: 35.5 µM [inhibitor, single point]
O=[N+]([O-])c1cc2c(cc1/C=N/Nc1nc(Nc3ccccc3)nc(N3CCCCC3)n1)OCO2	inactive: -5.36%	
CCOC(=O)c1c(NC(=O)C2CCCN2S(=O)(=O)c2cccc3nsnc23)sc(C)c1C (centres undefined)		inconclusive: 3.98 µM [inhibitor, partial curve, poor fit]
CCN(C(=O)CCNC(=O)Cn1cnc2ccccc2c1=O)c1cc(OC)ccc1OC	inactive: 4.62%	
COc1ccc(NC(=O)CSC2=Nc3ccccc3N=C(c3ccc(F)cc3)C2)cc1OC		inconclusive: 5.62 µM [inhibitor, single point]
CN1CCC(C(=O)C(=O)O)C1=O (centres undefined)		inconclusive: 0.631 µM [inhibitor, full curve, poor fit]
CCCn1c(SCC(=O)Nc2cc(Cl)ccc2OC)n[nH]c1=O		inconclusive: 0.562 µM [inhibitor, full curve, poor fit]
O=C(O)CSc1nc2ccc(NC(=O)COc3ccc(Cl)cc3)cc2s1	inactive: 1.11%	
Cc1ccc(-n2c(=O)c3c(c4cc(C)ccc4n3C)n(CC(=O)c3ccc(Cl)cc3)c2=O)cc1	inactive: -2.87%	
CC(=O)c1ccc(NC(=O)C2CCN(S(=O)(=O)c3cccs3)CC2)cc1		inconclusive: 25.1 µM [inhibitor, single point]

SMILES	activity, negative = inhibition	Potency
C[C@H]1CN([C@@H](C)CO)C(=O)CCCn2cc(nn2)CO[C@@H]1CN(C)S(C)(=O)=O		inconclusive: 2.24 µM [inhibitor, partial curve, poor fit]
CC(=O)N(C)c1nnc(-c2cnccn2)s1		inconclusive: 3.55 µM [inhibitor, single point]
CCS(=O)(=O)c1nc(S(=O)(=O)c2ccc(Cl)cc2)c(N2CCC(C(N)=O)CC2)s1	inactive: -0.784%	
Cc1ccc(-n2cc(CNCCc3ncc(C)[nH]3)c(-c3ccc(F)cc3)n2)cc1		inconclusive: 35.5 µM [inhibitor, single point]
O=C(C1=C[C@H](c2ccc3c(c2)OCO3)C[C@H](OCc2ccc(CO)cc2)O1)N1CCN(Cc2ccc3c(c2)OCO3)CC1	inactive: -34.7%	
CCOc1ccc(/C=N/NC(=O)NC23CC4CC(CC(C4)C2)C3)cc1O		inconclusive: 35.5 µM [inhibitor, single point]
OCCCn1c(-c2ccc(F)cc2)csc1=Nc1ccc(F)cc1		inconclusive: 14.1 µM [inhibitor, partial curve, poor fit]
Cc1nnsc1NC(=O)OCc1ccccc1Cl		inconclusive: 3.55 µM [inhibitor, single point]
O=C1NC(c2ccc3c(c2)OCO3)Oc2ccccc21 (centres undefined)	inactive: -0.146%	
S=C(NCc1ccccc1)N1CCN(c2cccc(Cl)c2)CC1		inconclusive: 14.1 µM [inhibitor, single point]
CC12CCC(=O)N1C(C(=O)Nc1ccccc1N1CCOCC1)CS2 (centres undefined)	inactive: -5.77%	
Cc1ccc(-c2nnn(CC(=O)N3CCN(c4nc5ccccc5s4)CC3)n2)cc1		inconclusive: 35.5 µM [inhibitor, single point]
COc1cc(OC)c(NC2=C(c3ccc(C(F)(F)F)cc3)C(=O)c3ccccc32)cc1Cl		inconclusive: 10 µM [inhibitor, partial curve, poor fit]
CC(C1CC1)N(Cc1ccccc1)C(=S)Nc1ccccc1Cl (centres undefined)		inconclusive: 11.2 µM [inhibitor, partial curve, poor fit]
C=C1C(=O)C=C2CN(C(=O)c3ccccc3)[C@@](Cc3ccc(F)cc3)(C(=O)OC)[C@@H]12		active: 1.78 µM
CCOc1cccc(C(=O)Nc2cccnc2)c1		inconclusive: 8.91 µM [inhibitor, partial curve, poor fit]
CC(C)(C)OC(=O)N1CCCC(C(=O)Nc2cccc(C(=O)NCCCCc3ccccc3)c2)C1 (centres undefined)	inactive: -29.9%	
O=C(CCS(=O)(=O)c1ccccc1)N(Cc1cccnc1)c1nc2ccc(F)cc2s1		inconclusive: 2.24 µM [inhibitor, full curve, poor fit]
COc1ccc(NC(=O)C2CCCN(c3c4c(nc5ncnn35)CCC4)C2)cc1 (centres undefined)	inactive: -23.6%	
O=S(=O)(c1ccc(Cl)s1)N1CCN(C/C=C/c2ccccc2)CC1		inconclusive: 10 µM [inhibitor, partial curve, poor fit]
COc1ccc(-c2cnc(C)o2)cc1S(=O)(=O)Nc1ccc(OC(F)(F)F)cc1		inconclusive: 35.5 µM [inhibitor, single point]
Cc1ccc(C)c(CSc2nnc(C)n3c2cc2sccc23)c1		inconclusive: 35.5 µM [inhibitor, single point]
